Measured values taken from patent US10913773B2, “Bicyclic peptidyl inhibitor of tumor necrosis factor-alpha” (Ohio State Innovation Foundation, priority 2016, dated 2021).
Read-outs that look alike come from different tables or passages of the source. At least one compound was matched to its structure with a doubt left. Starred links: 1 amine or outer side, 2 acyl side, 3 side chain; linkers in the order of their positions; H or OH if unused. Positions of bridges follow the written chain, without caps; N, C: chain ends. Non-standard residues stand in square brackets, D forms with d. Residues, ends and D or L forms follow the SMILES beside them. *: point of attachment. FITC = O=C1OC2(c3ccc(O)cc3Oc3cc(O)ccc32)c2ccc(NC(=S)*)cc21; Trimesoyl = O=C(c1cc(C(=O)[*:2])cc(C(=O)[*:3])c1)[*:1]; Phg = N[C@H](C(=O)O)c1ccccc1; Nle = CCCC[C@H](N)C(=O)O; Dap = NC[C@H](N)C(=O)O

Assays:
[1] = tested on: TNFα-induced cell death in WEHI-13VAR fibroblasts (recombinant human TNFα); format: cell-based; details: 0.4 ng/mL TNFα
Experimental: WEHI-13VAR fibroblasts were purchased from American Type Culture Collection (ATCC). For maintenance, cells were grown in full medium as RPMI-1640 supplemented with 10% FBS and 1% Abs. For toxicity assay, cells were seeded in a 96-well plate at a density of 5×10^3 cells/well in 100 μL of RPMI-1640/1% Abs supplemented with 10% or 5% FBS and allowed to grow overnight. Varying concentrations of recombinant human TNFα (0-250 ng/mL) or commercial mouse TNFα were (0-100 pg/mL) were incubated with 10 μM peptide and actinomycin D (1 μg/mL) in 100 μL of corresponding growth medium for 1 h at 37° C. Next, the medium in the 96-well plate was removed and replaced with the above fresh mixture and the cells were incubated overnight. […] The plate was kept in the incubator overnight to let the formazan crystals to completely dissolve, and the absorbance at 570 nm was measured on a TECAN plate reader. […]
One of the biological functions of TNFα is to induce death signaling. […] The cells were treated with a fixed concentration of peptides (10 μM) and varying concentrations of TNFα (0-1 μM), and the fraction of live cells was quantitated by the 3-(4,5-dimethylthiazol-2-yl)-2,5-diphenyltetrazolium bromide (MTT) assay. […]

[2] = target: T1, TNFα (Homo sapiens, UniProt P01375); details: Lian et al.; read-out: KD, previously reported value; cited from earlier work
T1 construct: ybbR tag (13 aa) (N); made in house; host or cells: Escherichia coli

[3] = target: T2, TNFα-TNFR1 interaction (Homo sapiens, UniProt P01375); details: previous studies (Lian et al.); read-out: IC50 for blocking TNFα-TNFRI interaction; cited from earlier work
T2 construct: made in house; host or cells: Escherichia coli (TNFα)

[4] = target: T1, TNFα; experiment: Fluorescence anisotropy (FA) binding of fluorescently labeled bicyclic peptides to TNFα
Experimental: FITC-labeled bicyclic peptide (50 or 100 nM) were incubated with varying concentrations of TNFα (0-5 μM) in 30 mM HEPES, pH 7.4, 150 mM NaCl, and 2 mM magnesium acetate for 2 h. The FA values were measured on a Molecular Devices Spectramax M5 spectrofluorimeter, with excitation and emission wavelengths at 485 and 525 nm, respectively. Equilibrium dissociation constants (KD) were determined by plotting the FA values as a function of TNFα concentration and fitting the data to the following equation
[formula] where Y is the measured anisotropy at a given TNFα concentration x; L is the bicyclic peptide concentration; Qb/Qf is the correction fact for dye-protein interaction; Amax is the maximum anisotropy when all the peptides are bound to TNFα, while Amin is the minimum anisotropy. Competition experiments were performed by incubating 100 nM Asn-Asn-Asn-Lys(FITC)-labeled anticachexin C1 (Table 1), 2 μM of TNFα, and varying concentrations of unlabeled competitor peptide (0-20 μM) in the above buffer for 2 h. The FA values were plotted against the competitor peptide concentration to determine the IC50 values.
To identify residues significant for TNFα binding, each residue of anticachexin C1 (other than D-alanine at position-3, L-lysine at position-4, and L-2,3-diaminopropionic acid (Dap) at position-10) was individually replaced with an alanine (or D-alanine). To facilitate binding analysis by fluorescence anisotropy (FA), a tetrapeptide NNNK (SEQ ID NO: 1) was added to the C-terminus of each bicyclic peptide and the lysine side chain was labeled with fluorescein isothiocyanate (FITC) during solid-phase synthesis (Scheme 1). The three asparagine residues were added to improve the aqueous solubility of the bicyclic peptides. The bicyclic peptide was prepared by first synthesizing the full-length linear sequence on Rink amide resin using standard Fmoc/HBTU chemistry. The side chains of the two internal cyclization residues, L-lysine and Dap, were protected with monomethoxytrityl (Mmt) groups, whereas the C-terminal lysine was protected with an allyloxycarbonyl (Alloc) group. After removal of the N-terminal Fmoc group, a trimesic acid was coupled to the N-terminal amine using HBTU as the coupling agent. Next, the Mmt groups were selectively removed from the Lys and Dap side chains by 2% TFA and the peptide was cyclized by treatment with (benzotriazol-1-yloxy)tripyrrolidinophosphonium hexafluorophosphate (PyBOP). The Alloc group on the C-terminal lysine side chain was removed by treatment with Pd(PPh3)4 and the bicyclic peptide was selectively labeled at the C-terminal lysine by treating the resin with FITC. […] On the other hand, phenylglycine (Phg)-1 and glycine-7 play more minor roles in binding.

[5] = Table 5, residue 11 variants with Lys(FITC)

T1 sequence (P01375 77-233 limits assumed): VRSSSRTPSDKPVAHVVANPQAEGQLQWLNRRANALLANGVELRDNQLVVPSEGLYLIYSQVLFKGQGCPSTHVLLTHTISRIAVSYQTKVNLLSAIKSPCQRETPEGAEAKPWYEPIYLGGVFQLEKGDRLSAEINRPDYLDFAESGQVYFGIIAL
T2 sequence (P01375 77-233 limits assumed): as above

C[C@H]1NC(=O)[C@H](Cc2ccc(O)cc2)NC(=O)[C@H](c2ccccc2)NC(=O)c2cc3cc(c2)C(=O)NC[C@@H](C(=O)N[C@@H](CC(N)=O)C(=O)N[C@@H](CC(N)=O)C(=O)N[C@@H](CC(N)=O)C(=O)N[C@@H](CCCCNC(=S)Nc2ccc4c(c2)C(=O)OC42c4ccc(O)cc4Oc4cc(O)ccc42)C(N)=O)NC(=O)[C@H](Cc2c[nH]cn2)NC(=O)[C@@H](CCCCN)NC(=O)CNC(=O)[C@@H](Cc2ccccc2)NC(=O)[C@H](Cc2ccc(O)cc2)NC(=O)[C@H](CCCCNC3=O)NC1=O [Compound C1] ([Phg]Y[dA]KY[dF]G[dK]H[Dap]NNNK(FITC)-NH2; linker N-4-10 via Trimesoyl)
Concentration showing significant protection [1]: ≥ 10 µM | Kd [2]: 450 nM | IC50 [3]: 3100 nM

CCCC[C@@H]1NC(=O)c2cc3cc(c2)C(=O)NC[C@@H](C(=O)N[C@@H](CCCCNC(=S)Nc2ccc4c(c2)C(=O)OC42c4ccc(O)cc4Oc4cc(O)ccc42)C(N)=O)NC(=O)[C@H](Cc2c[nH]cn2)NC(=O)[C@@H](CCCCN)NC(=O)CNC(=O)[C@@H](Cc2c[nH]cn2)NC(=O)[C@H](Cc2c[nH]c4ccccc24)NC(=O)[C@H](CCCCNC3=O)NC(=O)[C@@H](CO)NC(=O)[C@H](Cc2ccc(O)cc2)NC1=O [Compound C1-35] ([Nle]Y[dS]KW[dH]G[dK]H[Dap]K(FITC)-NH2; linker N-4-10 via Trimesoyl)
Kd ([4]; FITC-labeled peptide): 260 nM | Kd ([4]; Table 3, FITC-labeled analogues modified at residues 2, 5, 6): 260 ± 80 nM | Kd ([4]; Table 4, FITC-labeled analogues modified at residues 7-9): 260 ± 80 nM | Kd [4, 5]: 260 ± 80 nM

CCCC[C@@H]1NC(=O)c2cc3cc(c2)C(=O)NC[C@@H](C(=O)N[C@@H](CCCNC(=N)N)C(=O)N[C@@H](CCCCNC(=S)Nc2ccc4c(c2)C(=O)OC42c4ccc(O)cc4Oc4cc(O)ccc42)C(N)=O)NC(=O)[C@H](Cc2c[nH]cn2)NC(=O)[C@@H](CCCCN)NC(=O)CNC(=O)[C@@H](Cc2c[nH]cn2)NC(=O)[C@H](Cc2c[nH]c4ccccc24)NC(=O)[C@H](CCCCNC3=O)NC(=O)[C@@H](CO)NC(=O)[C@H](Cc2ccc(O)cc2)NC1=O [Compound C1-53] ([Nle]Y[dS]KW[dH]G[dK]H[Dap]RK(FITC)-NH2; linker N-4-10 via Trimesoyl)
Kd [4, 5]: > 10000 nM
